For 63 sequences, binding signal (RPM ratio (pull-down/input)) results are on record in publication PMC12820563.

Some of the results follow. The list includes weakly bound sequences.

For the test, the target named is T1, MBP-FoxP3dN (UniProt Q99JB6).
T1 sequence: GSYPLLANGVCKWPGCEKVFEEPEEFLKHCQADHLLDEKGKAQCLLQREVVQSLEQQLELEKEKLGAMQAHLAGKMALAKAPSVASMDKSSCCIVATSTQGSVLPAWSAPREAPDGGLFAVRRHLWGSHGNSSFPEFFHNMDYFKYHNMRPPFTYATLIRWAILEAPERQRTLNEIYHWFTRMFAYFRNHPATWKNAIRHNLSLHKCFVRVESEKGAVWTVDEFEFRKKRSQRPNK
Briefly: PD-seq (MBP pull-down with sequencing). Conditions: 20 mM Tris-HCl pH 7.5, 100 mM NaCl, 1.5 mM MgCl2, 0.4 uM protein, 0.1 uM dsDNA library, 30 min, room temperature, amylose pull-down; high values mean tight binding; double strand, one strand shown.
As to “GATGATTGTTCTCCCAGCTGATGAATTTAAAAATTCGAGTAAACAAATTTTCCTAATCTTTCTGTTCAAGCGCCATCTAC”, the binding signal (RPM ratio (pull-down/input)) came out at 0.192.
With “GATGATTGTTCTCCCAGCTGATGAATTGCCGCTCTCGAGTAAACAAATTTTCCTAATCTTTCTGTTCAAGCGCCATCTAC” the figure was 0.765; with “GATGATTGTTCTCCCAGCTGATGAATTAGTATAATCGAGTAAACAAATTTTCCTAATCTTTCTGTTCAAGCGCCATCTAC”, 1.21.
Turning to “GATGATTGTTCTCCCAGCTGATGAATTTCCTGGCTCGAGTAAACAAATTTTCCTAATCTTTCTGTTCAAGCGCCATCTAC”, the binding signal (RPM ratio (pull-down/input)) is 0.226.
As to “GATGATTGTTCTCCCAGCTGATGAATTATTTTGCTCGAGTAAACAAATTTTCCTAATCTTTCTGTTCAAGCGCCATCTAC”, the binding signal (RPM ratio (pull-down/input)) was determined as 0.946.
As for “GATGATTGTTCTCCCAGCTGATGAATTCAAGGTATCGAGTAAACAAATTTTCCTAATCTTTCTGTTCAAGCGCCATCTAC”, the figure is 0.478; as for “GATGATTGTTCTCCCAGCTGATGAATTGGCCTTATCGAGTAAACAAATTTTCCTAATCTTTCTGTTCAAGCGCCATCTAC”, 0.637; as for “GATGATTGTTCTCCCAGCTGATGAATTAGCCGCATCGAGTAAACAAATTTTCCTAATCTTTCTGTTCAAGCGCCATCTAC”, 0.945.
Take “GATGATTGTTCTCCCAGCTGATGAATTTCACACCTCGAGTAAACAAATTTTCCTAATCTTTCTGTTCAAGCGCCATCTAC”: the binding signal (RPM ratio (pull-down/input)) was 0.387.
As for “GATGATTGTTCTCCCAGCTGATGAATTTCTAGGCTCGAGTAAACAAATTTTCCTAATCTTTCTGTTCAAGCGCCATCTAC”, the binding signal (RPM ratio (pull-down/input)) is 0.195.
As for “GATGATTGTTCTCCCAGCTGATGAATTCACCGAATCGAGTAAACAAATTTTCCTAATCTTTCTGTTCAAGCGCCATCTAC”, the binding signal (RPM ratio (pull-down/input)) came to 0.205.
On to “GATGATTGTTCTCCCAGCTGATGAATTACACTGTTCGAGTAAACAAATTTTCCTAATCTTTCTGTTCAAGCGCCATCTAC”, for which the binding signal (RPM ratio (pull-down/input)) was 0.64.
As for “GATGATTGTTCTCCCAGCTGATGAATTATGTTAATCGAGTAAACAAATTTTCCTAATCTTTCTGTTCAAGCGCCATCTAC”, the figure is 1.49.
With “GATGATTGTTCTCCCAGCTGATGAATTCCACGACTCGAGTAAACAAATTTTCCTAATCTTTCTGTTCAAGCGCCATCTAC”, the binding signal (RPM ratio (pull-down/input)) is 0.254.
With “GATGATTGTTCTCCCAGCTGATGAATTAAAAAGTTCGAGTAAACAAATTTTCCTAATCTTTCTGTTCAAGCGCCATCTAC” the figure was 0.166; with “GATGATTGTTCTCCCAGCTGATGAATTCTATGCGTCGAGTAAACAAATTTTCCTAATCTTTCTGTTCAAGCGCCATCTAC”, 0.794; with “GATGATTGTTCTCCCAGCTGATGAATTCCCCCTATCGAGTAAACAAATTTTCCTAATCTTTCTGTTCAAGCGCCATCTAC”, 0.276.
With “GATGATTGTTCTCCCAGCTGATGAATTGGACGTCTCGAGTAAACAAATTTTCCTAATCTTTCTGTTCAAGCGCCATCTAC” the figure was 0.388; with “GATGATTGTTCTCCCAGCTGATGAATTTTCTCAATCGAGTAAACAAATTTTCCTAATCTTTCTGTTCAAGCGCCATCTAC”, 0.217.
Regarding “GATGATTGTTCTCCCAGCTGATGAATTTCCTCCTTCGAGTAAACAAATTTTCCTAATCTTTCTGTTCAAGCGCCATCTAC”, the binding signal (RPM ratio (pull-down/input)) is 0.196.
As for “GATGATTGTTCTCCCAGCTGATGAATTCCGGTGCTCGAGTAAACAAATTTTCCTAATCTTTCTGTTCAAGCGCCATCTAC”, the figure is 0.487.
As for “GATGATTGTTCTCCCAGCTGATGAATTGAGGCTGTCGAGTAAACAAATTTTCCTAATCTTTCTGTTCAAGCGCCATCTAC”, the binding signal (RPM ratio (pull-down/input)) is 0.873.
“GATGATTGTTCTCCCAGCTGATGAATTTGACTATTCGAGTAAACAAATTTTCCTAATCTTTCTGTTCAAGCGCCATCTAC”: the binding signal (RPM ratio (pull-down/input)) amounted to 0.671.
As for “GATGATTGTTCTCCCAGCTGATGAATTGAACCGTTCGAGTAAACAAATTTTCCTAATCTTTCTGTTCAAGCGCCATCTAC”, the figure is 0.344.
Consider “GATGATTGTTCTCCCAGCTGATGAATTAGCGAACTCGAGTAAACAAATTTTCCTAATCTTTCTGTTCAAGCGCCATCTAC”, for which the binding signal (RPM ratio (pull-down/input)) is 0.248.
As for “GATGATTGTTCTCCCAGCTGATGAATTAGATTGTTCGAGTAAACAAATTTTCCTAATCTTTCTGTTCAAGCGCCATCTAC”, the figure is 3.18.
As for “GATGATTGTTCTCCCAGCTGATGAATTCTAAATTTCGAGTAAACAAATTTTCCTAATCTTTCTGTTCAAGCGCCATCTAC”, the figure is 0.264.
As for “GATGATTGTTCTCCCAGCTGATGAATTACGGCCATCGAGTAAACAAATTTTCCTAATCTTTCTGTTCAAGCGCCATCTAC”, the figure is 1.15; as for “GATGATTGTTCTCCCAGCTGATGAATTCTTGTTATCGAGTAAACAAATTTTCCTAATCTTTCTGTTCAAGCGCCATCTAC”, 1.65; as for “GATGATTGTTCTCCCAGCTGATGAATTCCCCAACTCGAGTAAACAAATTTTCCTAATCTTTCTGTTCAAGCGCCATCTAC”, 0.229.
Regarding “GATGATTGTTCTCCCAGCTGATGAATTGTCCCCTTCGAGTAAACAAATTTTCCTAATCTTTCTGTTCAAGCGCCATCTAC”, the binding signal (RPM ratio (pull-down/input)) turned out to be 0.353.
“GATGATTGTTCTCCCAGCTGATGAATTCAGTGTTTCGAGTAAACAAATTTTCCTAATCTTTCTGTTCAAGCGCCATCTAC”: the binding signal (RPM ratio (pull-down/input)) was 1.93.
With “GATGATTGTTCTCCCAGCTGATGAATTGTTCTGTTCGAGTAAACAAATTTTCCTAATCTTTCTGTTCAAGCGCCATCTAC” the figure was 0.45.
As for “GATGATTGTTCTCCCAGCTGATGAATTAGGAGATTCGAGTAAACAAATTTTCCTAATCTTTCTGTTCAAGCGCCATCTAC”, the figure is 0.355; as for “GATGATTGTTCTCCCAGCTGATGAATTCCAATCGTCGAGTAAACAAATTTTCCTAATCTTTCTGTTCAAGCGCCATCTAC”, 0.404.
For the sequence “GATGATTGTTCTCCCAGCTGATGAATTAATTAGTTCGAGTAAACAAATTTTCCTAATCTTTCTGTTCAAGCGCCATCTAC”, the binding signal (RPM ratio (pull-down/input)) was determined as 2.32.
With “GATGATTGTTCTCCCAGCTGATGAATTAGTAAACTCGAGTAAACAAATTTTCCTAATCTTTCTGTTCAAGCGCCATCTAC”, the binding signal (RPM ratio (pull-down/input)) came out at 1.08.
With “GATGATTGTTCTCCCAGCTGATGAATTTACAGAGTCGAGTAAACAAATTTTCCTAATCTTTCTGTTCAAGCGCCATCTAC” the figure was 0.324; with “GATGATTGTTCTCCCAGCTGATGAATTTCTATTATCGAGTAAACAAATTTTCCTAATCTTTCTGTTCAAGCGCCATCTAC”, 0.61.
As to “GATGATTGTTCTCCCAGCTGATGAATTAGGAGTGTCGAGTAAACAAATTTTCCTAATCTTTCTGTTCAAGCGCCATCTAC”, the binding signal (RPM ratio (pull-down/input)) turned out to be 0.967.
As for “GATGATTGTTCTCCCAGCTGATGAATTCTTCGCATCGAGTAAACAAATTTTCCTAATCTTTCTGTTCAAGCGCCATCTAC”, the figure is 0.708; as for “GATGATTGTTCTCCCAGCTGATGAATTCAGCGCGTCGAGTAAACAAATTTTCCTAATCTTTCTGTTCAAGCGCCATCTAC”, 1.25.
As for “GATGATTGTTCTCCCAGCTGATGAATTATCGTATTCGAGTAAACAAATTTTCCTAATCTTTCTGTTCAAGCGCCATCTAC”, the figure is 1.35; as for “GATGATTGTTCTCCCAGCTGATGAATTCCCGACATCGAGTAAACAAATTTTCCTAATCTTTCTGTTCAAGCGCCATCTAC”, 0.408; as for “GATGATTGTTCTCCCAGCTGATGAATTTCCTAGTTCGAGTAAACAAATTTTCCTAATCTTTCTGTTCAAGCGCCATCTAC”, 0.288.
With “GATGATTGTTCTCCCAGCTGATGAATTGCATAACTCGAGTAAACAAATTTTCCTAATCTTTCTGTTCAAGCGCCATCTAC” the figure was 0.814; with “GATGATTGTTCTCCCAGCTGATGAATTCTTACTGTCGAGTAAACAAATTTTCCTAATCTTTCTGTTCAAGCGCCATCTAC”, 0.276.
Turning to “GATGATTGTTCTCCCAGCTGATGAATTCACTGCTTCGAGTAAACAAATTTTCCTAATCTTTCTGTTCAAGCGCCATCTAC”, the binding signal (RPM ratio (pull-down/input)) was determined as 0.345.
With “GATGATTGTTCTCCCAGCTGATGAATTTGCGGATTCGAGTAAACAAATTTTCCTAATCTTTCTGTTCAAGCGCCATCTAC” the figure was 0.838; with “GATGATTGTTCTCCCAGCTGATGAATTCCAGGTATCGAGTAAACAAATTTTCCTAATCTTTCTGTTCAAGCGCCATCTAC”, 0.446; with “GATGATTGTTCTCCCAGCTGATGAATTCGGTGCCTCGAGTAAACAAATTTTCCTAATCTTTCTGTTCAAGCGCCATCTAC”, 1.08.
“GATGATTGTTCTCCCAGCTGATGAATTCTGATACTCGAGTAAACAAATTTTCCTAATCTTTCTGTTCAAGCGCCATCTAC”: the binding signal (RPM ratio (pull-down/input)) turned out to be 0.986.
With “GATGATTGTTCTCCCAGCTGATGAATTTAAGTGCTCGAGTAAACAAATTTTCCTAATCTTTCTGTTCAAGCGCCATCTAC” the figure was 0.628; with “GATGATTGTTCTCCCAGCTGATGAATTTTGGTCTTCGAGTAAACAAATTTTCCTAATCTTTCTGTTCAAGCGCCATCTAC”, 0.487.
As for “GATGATTGTTCTCCCAGCTGATGAATTACGAGTTTCGAGTAAACAAATTTTCCTAATCTTTCTGTTCAAGCGCCATCTAC”, the figure is 1.1; as for “GATGATTGTTCTCCCAGCTGATGAATTCATTCTGTCGAGTAAACAAATTTTCCTAATCTTTCTGTTCAAGCGCCATCTAC”, 0.272.
As for “GATGATTGTTCTCCCAGCTGATGAATTCGCGGCATCGAGTAAACAAATTTTCCTAATCTTTCTGTTCAAGCGCCATCTAC”, the figure is 0.76; as for “GATGATTGTTCTCCCAGCTGATGAATTGTGTTCGTCGAGTAAACAAATTTTCCTAATCTTTCTGTTCAAGCGCCATCTAC”, 1.65.
For the sequence “GATGATTGTTCTCCCAGCTGATGAATTTGCCATATCGAGTAAACAAATTTTCCTAATCTTTCTGTTCAAGCGCCATCTAC”, the binding signal (RPM ratio (pull-down/input)) was 1.49.
As for “GATGATTGTTCTCCCAGCTGATGAATTGTGACGGTCGAGTAAACAAATTTTCCTAATCTTTCTGTTCAAGCGCCATCTAC”, the figure is 0.481.
With “GATGATTGTTCTCCCAGCTGATGAATTTTCGTGATCGAGTAAACAAATTTTCCTAATCTTTCTGTTCAAGCGCCATCTAC” the figure was 0.353; with “GATGATTGTTCTCCCAGCTGATGAATTGACCCACTCGAGTAAACAAATTTTCCTAATCTTTCTGTTCAAGCGCCATCTAC”, 0.352; with “GATGATTGTTCTCCCAGCTGATGAATTGCAAGTTTCGAGTAAACAAATTTTCCTAATCTTTCTGTTCAAGCGCCATCTAC”, 0.791.
